According to paper PMC11661359, “Structure guided functional analysis of the S. cerevisiae Mre11 complex” (Research Square, 2024):
No constants are given. Whether binding was seen depends on the method and setting. In cells and extracts the contact can be indirect. Some results given as binding are weak or reduced against the parent protein; the word gives no strength.

What was measured:
Assay in all cases: co-IP; cells grown at 30°C or 37°C; Rad50, Mre11 or Xrs2 immunoprecipitated from cell extracts, western blot with anti-Rad50, anti-Mre11 or anti-Xrs2 antibodies
[1] = molecular target: T1, Mre11 (wild type, in S. cerevisiae cell extracts) (S. cerevisiae) (UniProt P32829)
T1 sequence: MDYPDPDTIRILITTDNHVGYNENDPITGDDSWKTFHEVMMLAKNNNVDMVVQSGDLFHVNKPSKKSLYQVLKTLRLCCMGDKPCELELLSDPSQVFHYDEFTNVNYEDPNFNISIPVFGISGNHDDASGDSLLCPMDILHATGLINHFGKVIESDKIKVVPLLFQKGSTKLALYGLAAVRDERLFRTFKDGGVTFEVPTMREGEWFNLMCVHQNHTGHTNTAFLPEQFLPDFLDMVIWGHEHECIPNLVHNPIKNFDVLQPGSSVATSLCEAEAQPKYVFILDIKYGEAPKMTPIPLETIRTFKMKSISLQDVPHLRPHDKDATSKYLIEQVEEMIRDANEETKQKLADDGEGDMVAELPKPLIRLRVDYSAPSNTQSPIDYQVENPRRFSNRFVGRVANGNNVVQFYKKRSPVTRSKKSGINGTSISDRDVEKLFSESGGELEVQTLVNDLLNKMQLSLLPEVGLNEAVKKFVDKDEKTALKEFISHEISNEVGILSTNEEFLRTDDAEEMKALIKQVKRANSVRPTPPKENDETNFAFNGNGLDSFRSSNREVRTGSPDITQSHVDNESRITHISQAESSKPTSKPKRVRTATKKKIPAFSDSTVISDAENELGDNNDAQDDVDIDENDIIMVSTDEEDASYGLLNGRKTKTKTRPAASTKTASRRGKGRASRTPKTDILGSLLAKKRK

[2] = molecular target: T2, Mre11-MRI-5A1 (K322A N387A R389A R390A R412A) (S. cerevisiae) (UniProt P32829)
T2 sequence: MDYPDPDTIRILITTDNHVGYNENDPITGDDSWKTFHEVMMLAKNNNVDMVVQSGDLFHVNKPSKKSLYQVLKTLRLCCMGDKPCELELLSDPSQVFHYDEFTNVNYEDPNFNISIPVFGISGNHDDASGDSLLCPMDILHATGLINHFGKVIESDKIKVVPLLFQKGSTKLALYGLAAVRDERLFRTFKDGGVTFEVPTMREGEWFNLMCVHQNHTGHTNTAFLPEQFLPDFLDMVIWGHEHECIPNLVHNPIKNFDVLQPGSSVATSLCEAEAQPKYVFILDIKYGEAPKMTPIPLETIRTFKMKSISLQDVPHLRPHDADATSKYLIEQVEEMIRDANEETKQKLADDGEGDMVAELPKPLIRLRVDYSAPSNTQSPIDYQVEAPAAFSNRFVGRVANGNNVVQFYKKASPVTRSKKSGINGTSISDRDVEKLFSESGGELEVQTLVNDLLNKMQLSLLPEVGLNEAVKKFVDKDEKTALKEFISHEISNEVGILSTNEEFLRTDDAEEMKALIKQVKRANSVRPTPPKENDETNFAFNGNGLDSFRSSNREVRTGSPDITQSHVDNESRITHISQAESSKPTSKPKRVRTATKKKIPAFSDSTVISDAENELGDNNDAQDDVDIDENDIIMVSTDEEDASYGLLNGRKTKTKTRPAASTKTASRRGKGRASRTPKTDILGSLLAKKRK

[3] = molecular target: T3, Mre11-MRI-5A2 (K322A N387A R389A R390A K410A) (S. cerevisiae) (UniProt P32829)
T3 sequence: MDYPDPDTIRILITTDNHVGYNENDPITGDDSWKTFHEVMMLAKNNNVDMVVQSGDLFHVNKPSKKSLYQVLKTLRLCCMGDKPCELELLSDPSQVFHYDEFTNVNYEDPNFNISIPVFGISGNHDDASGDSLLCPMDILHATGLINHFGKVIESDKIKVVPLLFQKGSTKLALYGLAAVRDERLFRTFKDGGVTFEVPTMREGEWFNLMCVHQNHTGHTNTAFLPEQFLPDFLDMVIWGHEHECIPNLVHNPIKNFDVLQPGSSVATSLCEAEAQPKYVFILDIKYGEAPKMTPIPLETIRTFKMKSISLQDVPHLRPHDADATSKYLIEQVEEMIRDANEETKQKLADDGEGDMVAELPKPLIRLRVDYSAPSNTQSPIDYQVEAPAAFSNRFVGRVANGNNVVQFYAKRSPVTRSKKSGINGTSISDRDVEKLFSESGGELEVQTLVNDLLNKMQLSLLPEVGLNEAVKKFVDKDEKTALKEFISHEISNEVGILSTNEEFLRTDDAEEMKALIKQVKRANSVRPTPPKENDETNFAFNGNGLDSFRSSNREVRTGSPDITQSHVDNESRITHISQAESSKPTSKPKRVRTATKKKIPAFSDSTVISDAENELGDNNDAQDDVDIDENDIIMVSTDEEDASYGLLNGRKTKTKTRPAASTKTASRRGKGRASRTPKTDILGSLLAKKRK

[4] = molecular target: T4, Mre11-MRI-6A (K322A N387A R389A R390A K410A R412A), in cell extracts (S. cerevisiae) (UniProt P32829)
T4 sequence: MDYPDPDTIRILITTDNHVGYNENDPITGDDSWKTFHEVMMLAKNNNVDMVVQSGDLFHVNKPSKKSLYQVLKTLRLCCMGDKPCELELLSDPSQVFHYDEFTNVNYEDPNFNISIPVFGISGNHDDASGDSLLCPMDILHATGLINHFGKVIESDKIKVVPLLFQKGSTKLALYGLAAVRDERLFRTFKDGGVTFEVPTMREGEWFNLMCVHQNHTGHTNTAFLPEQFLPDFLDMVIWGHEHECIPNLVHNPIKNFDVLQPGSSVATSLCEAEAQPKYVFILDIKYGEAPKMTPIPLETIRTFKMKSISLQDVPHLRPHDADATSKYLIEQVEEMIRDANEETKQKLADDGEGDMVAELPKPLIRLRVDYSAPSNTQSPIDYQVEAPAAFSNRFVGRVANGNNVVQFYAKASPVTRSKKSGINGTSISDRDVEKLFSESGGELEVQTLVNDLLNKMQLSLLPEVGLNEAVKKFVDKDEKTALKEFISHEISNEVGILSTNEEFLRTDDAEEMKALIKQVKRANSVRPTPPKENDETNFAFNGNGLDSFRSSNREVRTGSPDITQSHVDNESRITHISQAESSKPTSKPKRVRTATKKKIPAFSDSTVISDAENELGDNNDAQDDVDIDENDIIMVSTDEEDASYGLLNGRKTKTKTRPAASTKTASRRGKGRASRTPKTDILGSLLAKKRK

Measured: binding

B1: Rad50 (wild type, in S. cerevisiae cell extracts) (enzyme, UniProt P12753 1-1312)
chain: MSAIYKLSIQGIRSFDSNDRETIEFGKPLTLIVGMNGSGKTTIIECLKYATTGDLPPNSKGGVFIHDPKITGEKDIRAQVKLAFTSANGLNMIVTRNIQLLMKKTTTTFKTLEGQLVAINNSGDRSTLSTRSLELDAQVPLYLGVPKAILEYVIFCHQEDSLWPLSEPSNLKKKFDEIFQAMKFTKALDNLKSIKKDMSVDIKLLKQSVEHLKLDKDRSKAMKLNIHQLQTKIDQYNEEVSEIESQLNEITEKSDKLFKSNQDFQKILSKVENLKNTKLSISDQVKRLSNSIDILDLSKPDLQNLLANFSKVLMDKNNQLRDLETDISSLKDRQSSLQSLSNSLIRRQGELEAGKETYEKNRNHLSSLKEAFQHKFQGLSNIENSDMAQVNHEMSQFKAFISQDLTDTIDQFAKDIQLKETNLSDLIKSITVDSQNLEYNKKDRSKLIHDSEELAEKLKSFKSLSTQDSLNHELENLKTYKEKLQSWESENIIPKLNQKIEEKNNEMIILENQIEKFQDRIMKTNQQADLYAKLGLIKKSINTKLDELQKITEKLQNDSRIRQVFPLTQEFQRADLEMDFQKLFINMQKNIAINNKKMHELDRRYTNALYNLNTIEKDLQDNQKSKEKVIQLLSENLPEDCTIDEYNDVLEETELSYKTALENLKMHQTTLEFNRKALEIAERDSCCYLCSRKFENESFKSKLLQELKTKTDANFEKTLKDTVQNEKEYLHSLRLLEKHIITLNSINEKIDNSQKCLEKAKEETKTSKSKLDELEVDSTKLKDEKELAESEIRPLIEKFTYLEKELKDLENSSKTISEELSIYNTSEDGIQTVDELRDQQRKMNDSLRELRKTISDLQMEKDEKVRENSRMINLIKEKELTVSEIESSLTQKQNIDDSIRSKRENINDIDSRVKELEARIISLKNKKDEAQSVLDKVKNERDIQVRNKQKTVADINRLIDRFQTIYNEVVDFEAKGFDELQTTIKELELNKAQMLELKEQLDLKSNEVNEEKRKLADSNNEEKNLKQNLELIELKSQLQHIESEISRLDVQNAEAERDKYQEESLRLRTRFEKLSSENAGKLGEMKQLQNQIDSLTHQLRTDYKDIEKNYHKEWVELQTRSFVTDDIDVYSKALDSAIMKYHGLKMQDINRIIDELWKRTYSGTDIDTIKIRSDEVSSTVKGKSYNYRVVMYKQDVELDMRGRCSAGQKVLASIIIRLALSETFGANCGVIALDEPTTNLDEENIESLAKSLHNIINMRRHQKNFQLIVITHDEKFLGHMNAAAFTDHFFKVKRDDRQKSQIEWVDINRVTY
binds: all assays above
